Data: paper PMC4336329 (PLoS ONE, 2015)
About 2,200 (0.71%) of roughly 310,000 compounds showed an effect of 50% or more. The effect is printed as a negative number. The list shows a part of the results.

Biological target: human ether-à-go-go-related gene (hERG) potassium channel (human, UniProt Q12809)
Test: primary screen, population patch clamp on CHO cells stably expressing hERG

Sequence of human ether-à-go-go-related gene (hERG) potassium channel (Q12809 whole entry, looked up): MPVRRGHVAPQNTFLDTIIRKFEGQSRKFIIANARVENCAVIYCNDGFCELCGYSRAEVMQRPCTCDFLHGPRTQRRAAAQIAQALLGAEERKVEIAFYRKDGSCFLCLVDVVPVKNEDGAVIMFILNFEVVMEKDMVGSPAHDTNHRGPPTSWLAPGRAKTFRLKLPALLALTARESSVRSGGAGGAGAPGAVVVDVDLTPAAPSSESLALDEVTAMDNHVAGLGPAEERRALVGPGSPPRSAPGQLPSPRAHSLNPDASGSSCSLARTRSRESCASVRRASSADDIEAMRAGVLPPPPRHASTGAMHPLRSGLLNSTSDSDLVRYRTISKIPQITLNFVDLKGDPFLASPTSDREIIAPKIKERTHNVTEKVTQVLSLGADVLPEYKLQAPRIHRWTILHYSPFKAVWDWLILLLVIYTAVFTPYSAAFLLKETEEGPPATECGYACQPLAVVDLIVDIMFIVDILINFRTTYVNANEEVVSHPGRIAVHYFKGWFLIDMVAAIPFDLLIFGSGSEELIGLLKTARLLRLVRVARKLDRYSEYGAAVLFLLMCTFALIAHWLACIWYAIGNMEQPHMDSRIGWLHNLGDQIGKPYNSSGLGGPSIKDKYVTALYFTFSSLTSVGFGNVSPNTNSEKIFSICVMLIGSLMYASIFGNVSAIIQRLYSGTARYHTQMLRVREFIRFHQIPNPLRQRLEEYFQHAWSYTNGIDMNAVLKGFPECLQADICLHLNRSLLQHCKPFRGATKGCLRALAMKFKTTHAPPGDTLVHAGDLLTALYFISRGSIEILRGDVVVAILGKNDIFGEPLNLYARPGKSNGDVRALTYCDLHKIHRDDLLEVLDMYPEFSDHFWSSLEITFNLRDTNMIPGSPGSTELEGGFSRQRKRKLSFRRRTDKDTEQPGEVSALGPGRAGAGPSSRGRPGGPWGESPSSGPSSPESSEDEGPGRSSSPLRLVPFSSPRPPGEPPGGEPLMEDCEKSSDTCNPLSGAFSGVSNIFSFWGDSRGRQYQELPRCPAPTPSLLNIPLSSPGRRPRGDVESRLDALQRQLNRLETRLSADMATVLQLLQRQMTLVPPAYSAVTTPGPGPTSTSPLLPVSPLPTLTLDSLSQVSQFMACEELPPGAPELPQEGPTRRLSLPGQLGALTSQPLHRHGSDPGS

Structure (SMILES) | hERG current change (%, negative = inhibition) at 1uM [%]
CC1CCC(NC(=O)Cn2cnc3sccc3c2=O)CC1 (stereo not drawn) | 3.74
O=C(CNS(=O)(=O)c1ccccc1)OCC(=O)c1ccc([N+](=O)[O-])cc1 | 10.4
Cc1c(Cl)cccc1Nc1nc(N)nc(CSC(=S)N2CCOCC2)n1 | 8.31
CCC(CC)C(=O)Nc1cccc(C(=O)NCc2ccco2)c1 | 3.84
c1ccc(CNc2ncnc3nc[nH]c23)nc1 | 7.8
COCCNC(=O)c1c[nH]c2cc(OC)c(OC)cc2c1=O | 11.9
CS(=O)(=O)N(CC(=O)N1CCCCCC1)c1cccc(F)c1 | 12.1
Cc1cccc(NC(=O)C2CCCN(S(=O)(=O)c3cccc4cccnc34)C2)c1 (stereo not drawn) | -6.3
O=C(CCCn1c(SCc2ccccc2F)nc2ccccc2c1=O)NCC1CCCO1 (stereo not drawn) | 8.02
COc1ccc(-c2cn[nH]c2-c2ccc(OCc3ccc(F)cc3)cc2O)cc1OC | 9.68
Cc1ccc(N2C(=O)c3ccc(C(=O)NCCN4CCOCC4)cc3C2=O)cc1 | 1.76
CCc1nc(SCC(=O)NC2CCCC2)c2oc3ccccc3c2n1 | 16.4
Cc1ccccc1NC(=S)NC(=O)c1cc(-c2ccccc2)nc2ccccc12 | 16.4
CC(=O)OCC(=O)[C@H]1CC[C@H]2[C@@H]3CCC4=CC(=O)CC[C@]4(C)[C@H]3CC[C@]12C | 5.41
COc1cccc(C(=O)NNC(=S)NC2CCCCC2)c1 | 12.7
COc1cc(CN2CCCN(C)CC2)cc([N+](=O)[O-])c1O | 12.8
CC(C)c1ccc(OCC(=O)N2CCN(C(=O)c3ccco3)CC2)cc1 | -9.83
CCOC(=O)C1=C(C(F)(F)F)Nc2ncnn2C1c1cc(OC)c(OC)cc1OC (stereo not drawn) | 12.8
COC(=O)C1CN(C(=O)COc2ccc(Cl)cc2Cl)c2ccccc2O1 (stereo not drawn) | 15.1
O=C1C(C=Nc2ccc(F)cc2)=C(O)c2ccccc21 | 12.2
Cc1nnc(SCC(=O)Nc2ccc(Br)cn2)[nH]c1=O | 13.7
CSc1nc(Sc2cccc(Cl)c2)c2ccccc2n1 | 14

Structure (SMILES) | hERG current change (%, negative = inhibition) at 1uM [%]
O=C(CCCC1=NS(=O)(=O)c2ccccc2N1)N1CCN(c2ccc([N+](=O)[O-])cc2)CC1 | 12.6
O=C(Oc1coc(CSc2nnc(NC(=O)C3CC3)s2)cc1=O)c1c(F)cccc1F | 9.18
COc1ccc(OC)c(S(=O)(=O)Nc2cccc(-c3ccc(N4CCCCCC4)nn3)c2)c1 | 13.1
O=C(NC(Cc1c[nH]c2ccccc12)C(=O)O)/C(=C/c1ccco1)NC(=O)c1ccccc1 (stereo not drawn) | 5.59
COCCn1c(SCC(=O)NCc2ccccc2)nnc1-c1ccco1 | 9.33
COc1ccccc1NC(=O)C(=O)NCCC1CCCCN1S(=O)(=O)c1ccc(F)cc1 (stereo not drawn) | 12.8
O=C(COC(=O)Cn1cnc2ccccc21)Nc1cccc([N+](=O)[O-])c1 | 13.4
CCOC(=O)C1=C(C)N=c2s/c(=C\c3ccncc3)c(=O)n2C1c1ccc2c(c1)OCO2 (stereo not drawn) | 10.4
CC(=O)Nc1ccc2nc(NC(=O)CN3CCOCC3)sc2c1 | 22.1
CCCc1nn2c(=O)c(C(c3ccc(C)cc3)c3c(O)nc4sc(CCC)nn4c3=O)c(O)nc2s1 | 10.5
Brc1ccc(C2=CC(c3cccs3)n3ncnc3N2)cc1 (stereo not drawn) | 1.55
Cc1ccc(C(=O)N2CCN(CCNC(=O)C(=O)NCc3ccc(Cl)cc3)CC2)cc1 | -48.8
COc1cc(S(=O)(=O)NCc2cccnc2)ccc1F | -7.26
O=C(O)c1ccc(-n2cccc2/C=C2/SC(=O)N(CC(=O)N3CCCC3)C2=O)cc1 | 14.3
COc1ccc(N2C(=O)NC(=O)/C(=C\c3cn(C)c4ccccc34)C2=O)cc1 | 13.7
O=C(NCCCn1ccnc1)/C(=C\c1cccnc1)NC(=O)c1ccco1 | 2.54
CC(NC(=O)c1ccc2c(=O)n3c(nc2c1)CCC3)c1ccc(S(N)(=O)=O)cc1 (stereo not drawn) | 5.09
O=[N+]([O-])c1ccc2nc(SCc3cn4ccccc4n3)[nH]c2c1 | -0.991
O=C(Nc1ccccc1)C1=C[C@H](c2ccccc2)C[C@H](OCc2ccc(CO)cc2)O1 | 9.55
Cn1cncc1C(=O)c1ccccc1 | 5.68
CCc1ccccc1NC(=O)Cn1nnc(C(=O)NCc2cccc(OC)c2)c1N | -1.35
COCc1nnc(NC(=O)c2ccc(NC(C)=O)cc2)s1 | 11.9

Structure (SMILES) | hERG current change (%, negative = inhibition) at 1uM [%]
O=C1CN(C(=O)COC(=O)c2ccccc2NC(=O)c2ccco2)c2ccccc2N1 | 5.59
COc1ccccc1CN1CC(C(=O)N(C)CCOc2ccccc2)CCC1=O (stereo not drawn) | 4.75
C=CCSc1nc(Oc2ccccc2)c2sccc2n1 | 5.44
CN(/N=C/c1cccs1)c1cc(=O)n(C)c(=O)[nH]1 | 8.29
O=C(NC(=S)Nc1ccccc1N1CCOCC1)c1ccc(-c2cccc(Cl)c2)o1 | 8.88
CC1=CCC(C(=O)O)(C(=O)N/N=C/c2cccnc2)C(c2ccccc2)C1 (stereo not drawn) | 6.97
CC(Sc1nnc(-c2ccccc2F)n1N)C(=O)NCC1CCCO1 (stereo not drawn) | 9.3
COc1cccc(NC(=O)Nc2nnc(Cc3ccccc3)s2)c1 | 15.7
Cc1cccc(C(=O)NCC2CCCO2)c1 (stereo not drawn) | 15.4
CC(C)CNC(=S)NC1CC2CCCC(C1)N2Cc1ccco1 (stereo not drawn) | -9.18
CCOC(=O)c1c(-c2ccc(F)cc2)csc1/N=C/N(C)C | 4.81
O=C(NC1CC1)C1=C[C@@H](c2ccc(C(F)(F)F)cc2)C[C@@H](OCc2ccc(CO)cc2)O1 | -10.6
CC(C)Oc1ccc(/C=N/NC(=O)c2nnn(-c3nonc3N)c2CN(C)C2CCCCC2)cc1 | 1.25
N#Cc1c(C(F)(F)F)cc(-c2ccc(Cl)cc2)[nH]c1=O | 21.8
Cn1c(N)c(C(=O)NCc2ccccc2)sc1=S | -0.462
CC(C)CC(NC(=O)C1CCCCC1)C(=O)NCc1ccccn1 (stereo not drawn) | 17.1
CC(=O)NC1CC2CCCC(C1)N2CC(=O)Nc1ccccc1 (stereo not drawn) | 12.7
O=C(NCC1COc2ccccc2O1)c1cccc(S(=O)(=O)N2CCOCC2)c1 (stereo not drawn) | -10.6
CCOc1ccc(CNc2nnnn2C)cc1 | 15.1
O=[N+]([O-])c1ccc(/C=N/NC(=S)Nc2ccc(Cl)cc2Cl)s1 | 12.2
CCOC(=O)C1CCN(Cc2oc(CO)cc(=O)c2O)CC1 | 3.56
CCn1c(-c2csc(-c3ccccc3)n2)n[nH]c1=S | 9.82

Structure (SMILES) | hERG current change (%, negative = inhibition) at 1uM [%]
CCOC(=O)N1CCN(C(=O)c2n[nH]c(=O)c3ccccc23)CC1 | 10.7
CCCCCNC(=O)c1cccnc1SCC(=O)Nc1ccccc1OC | -19.8
O=C(Nc1ccc(Oc2nnc(-c3ccccc3)c3ccccc23)cc1)c1ccccc1 | 6
Cc1sc2ncnc(NC3CCN(Cc4ccccc4)CC3)c2c1C | -56.9
O=C(c1ccc(Cl)c(S(=O)(=O)N2CCCCCC2)c1)N1CCN(c2ccccn2)CC1 | -0.772
COc1ccc(C2CC(=O)N3CN(c4ccc(C)c(Cl)c4)CSC3=C2C#N)cc1 (stereo not drawn) | 14.5
CCOc1cc(/C=N/N=C2/NC(=O)C(CC(=O)O)S2)ccc1OCc1ccc(Cl)cc1Cl (stereo not drawn) | 11.4
CCOc1ccc(OCC(=O)Nc2ccc(S(N)(=O)=O)cc2)cc1 | 5.92
O=C(CP(=O)(c1ccccc1)c1ccccc1)Nc1nc2ccccc2s1 | 16.5
CSc1cccc(NC(=O)c2ccc(CN3CCc4ccccc4C3)cc2)c1 | 6.61
CCCCCc1cc(=O)oc2c(C(CCN3CCCC3)c3ccc(N(C)C)cc3)c(OC)cc(OC)c12 (stereo not drawn) | -11.1
Cc1noc(C)c1CSc1nnc(-c2ccncc2)n1-c1cccc(Cl)c1C | -10.3
O=C(CNS(=O)(=O)c1cccc(Cl)c1)Nc1ccc(-c2nc3ccccc3s2)cc1 | 1.7
CCOC(=O)C(C)Sc1nc(N)c(NC(=O)c2ccc(OC)c(OC)c2)c(=O)[nH]1 (stereo not drawn) | -1.17
Cc1cc(=O)oc2c3c4c(cc12)OCCN4CCC3 | -0.204
COc1ccccc1CN(C(=O)CNC(=O)c1ccco1)C(C(=O)NCC1CCCO1)c1ccc(OC)c(OC)c1 (stereo not drawn) | 14.6
CC(c1ccccc1)c1nnc(N)s1 (stereo not drawn) | 13.2
Cc1cccc(NC(=O)c2cc(Cl)nc3ccccc23)n1 | 2.99
COc1ccc(S(=O)(=O)N2CCN(Cc3cccc(Cl)c3)CC2)cc1 | 5.88
CCCCOC(=O)Nc1ccc2c(C)cc(=O)oc2c1 | 4.39
O=C(NCc1ccc2c(c1)OCO2)c1ccc(COc2cccc(Cl)c2)o1 | 9.76
